The text below walks through data of the supplement of paper PMC9446081.

Molecules are shown by their SMILES. The campaign covered roughly 39,000 compounds. About 220 (0.56%) showed activity. Some of the results follow.
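Also: static incubation at 37 °C against the wild-type strain, values averaged over two biological replicates.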

In this test the test system is Escherichia coli K-12 BW25113. The test can be described thus: relative growth (OD600 normalised to plate interquartile mean) (fraction); higher = less growth inhibition, active = 0.2 or less. As to conditions: 50 µM; LB; incubation time: overnight (16-24 h).
Turning to `Cc1noc(C)c1NC(=O)Nc1ccc2c(c1)C(=O)N([C@@H](C)CO)C[C@H](C)[C@H](CN(C)C(=O)Nc1ccc3c(c1)OCO3)OCCCC[C@H](C)O2`, the relative growth is inactive: 0.998.

With `C[C@H](CO)N1C[C@H](C)[C@@H](CN(C)S(=O)(=O)c2cn(C)cn2)Oc2c(NS(=O)(=O)c3ccccc3)cccc2C1=O`, the relative growth is inactive: 1.

As for `CO[C@H]1CN(C)C(=O)c2cc(NC(=O)NC(C)C)ccc2OC[C@H](C)N(Cc2ccc(-c3ccccn3)cc2)C[C@@H]1C`, the relative growth was inactive: 1.01.

As for `Cc1noc(C)c1NC(=O)Nc1ccc2c(c1)C(=O)N([C@H](C)CO)C[C@@H](C)[C@H](CN(C)C(=O)Nc1cccc3ccccc13)OCCCC[C@@H](C)O2`, the relative growth is inactive: 1.02.

As to `Cc1ccc(S(=O)(=O)Nc2ccc3c(c2)C(=O)N([C@@H](C)CO)C[C@@H](C)[C@H](CN(C)Cc2ccc(C(=O)O)cc2)OCCCC[C@H](C)O3)cc1`, the relative growth is inactive: 1.01.

Take `CC1(C)OC2CC3C4CCC5=CC(=O)CCC5(C)C4(F)C(O)CC3(C)C2(C(=O)CCl)O1` (stereo not drawn): the relative growth is inactive: 0.978.

In the case of `O=C(CCCCCNC(=O)OCc1ccc(CO[C@@H]2C[C@H](c3csc4ccccc34)C=C(C(=O)N3CCN(Cc4ccccc4)CC3)O2)cc1)NO`, the relative growth is inactive: 1.

On to `COc1cccc(-c2ccc3c(c2)O[C@@H](CN(C)Cc2cncnc2)[C@H](C)CN([C@H](C)CO)S3(=O)=O)c1`, for which the relative growth was inactive: 1.02.

Turning to `C[C@@H]1CN([C@@H](C)CO)C(=O)Cc2cc(NC(=O)CCCCCC(=O)Nc3ccccc3N)ccc2O[C@@H]1CN(C)C(=O)Nc1ccc(F)cc1`, the relative growth was inactive: 0.986.

With `Cc1ccc(S(=O)(=O)Nc2ccc3c(c2)CC(=O)N([C@@H](C)CO)C[C@H](C)[C@H](CN(C)S(=O)(=O)c2cccs2)O3)cc1`, the relative growth was inactive: 1.01.

Take `O=c1[nH]c2ccccc2c2ccccc12`: the relative growth was inactive: 1.

Turning to `C[C@H](CO)N1C[C@H](C)[C@@H](CN(C)C(=O)NC2CCCCC2)OCCCC[C@H](C)Oc2ccc(NC(=O)c3ccncc3)cc2C1=O`, the relative growth is inactive: 0.967.

Regarding `C[C@@H]1CN([C@@H](C)CO)C(=O)c2c(c3ccccc3n2C)-c2ccccc2CO[C@@H]1CN(C)C(=O)c1cc(Cl)cc(Cl)c1`, the relative growth is inactive: 1.02.

`C[C@H](CO)N1C[C@H](C)[C@@H](CN(C)Cc2ccc(C(F)(F)F)cc2)Oc2ccc(NC(=O)Nc3ccc4c(c3)OCO4)cc2CC1=O`: the relative growth was inactive: 1.07.

As to `COc1ccc(CN(C)C[C@H]2Oc3ccc(NS(C)(=O)=O)cc3C(=O)N([C@@H](C)CO)C[C@@H]2C)cc1`, the relative growth was inactive: 1.06.

On to `NC(=O)c1cccnc1N1CCN(C(=O)[C@@H]2CC(=O)N(C3CC3)C2)CC1`, for which the relative growth is inactive: 0.997.

Turning to `C[C@@H]1CCCCO[C@@H](CN(C)S(=O)(=O)c2ccc(Cl)cc2)[C@H](C)CN([C@H](C)CO)C(=O)c2cc(NS(=O)(=O)c3cccs3)ccc2O1`, the relative growth was inactive: 1.01.

For the molecule `C[C@H](CO)N1C[C@H](C)[C@H](CN(C)Cc2ccc(C(F)(F)F)cc2)Oc2ccc(NC(=O)Nc3ccc(C(F)(F)F)cc3)cc2C1=O`, the relative growth was inactive: 0.96.

As to `COc1nn(C)cc1C(=O)N1CCN(C)CC1`, the relative growth was inactive: 0.998.

Take `Cc1ccc(S(=O)(=O)Nc2ccc3c(c2)C(=O)N([C@H](C)CO)C[C@H](C)[C@H](CN(C)C(=O)Nc2c(C)noc2C)OCCCC[C@@H](C)O3)cc1`: the relative growth is inactive: 0.972.

Consider `O=C(O)CCN1CCCC1=O`, for which the relative growth was inactive: 0.975.

For `COc1ccc(S(=O)(=O)N(C)C[C@@H]2Oc3ccc(NS(=O)(=O)c4c(C)noc4C)cc3CC(=O)N([C@H](C)CO)C[C@@H]2C)cc1`, the relative growth was inactive: 0.996.

Consider `C[C@H]1CN([C@@H](C)CO)C(=O)Cc2cc(NC(=O)Nc3ccccc3)ccc2O[C@@H]1CN(C)C(=O)Nc1cccc2ccccc12`, for which the relative growth was inactive: 1.03.

On to `COc1ccc(S(=O)(=O)N(C)C[C@H]2Oc3c(NS(=O)(=O)c4ccc(C)cc4)cccc3C(=O)N([C@H](C)CO)C[C@@H]2C)cc1`, for which the relative growth was inactive: 1.04.

In the case of `C[C@H]1CN([C@@H](C)CO)C(=O)Cc2cc(NC(=O)CCCCCC(=O)Nc3ccccc3N)ccc2O[C@@H]1CN(C)S(=O)(=O)c1cn(C)cn1`, the relative growth was inactive: 1.02.

With `Cc1ccc(S(=O)(=O)N(C)C[C@H]2Oc3ccc(NC(=O)CCCN(C)C)cc3CC(=O)N([C@H](C)CO)C[C@@H]2C)cc1`, the relative growth was inactive: 1.01.

For the molecule `COc1ccccc1[C@@H](NC(=O)C1CCN(CCOc2ccc(Cl)cc2Cl)CC1)c1ccccn1`, the relative growth is inactive: 0.961.

Regarding `Cc1ccc(S(=O)(=O)N(C)C[C@H]2Oc3ccc(N(C)C)cc3CC(=O)N([C@H](C)CO)C[C@@H]2C)cc1`, the relative growth was inactive: 0.989.

On to `NC(=O)CC[C@H]1CCCNC1`, for which the relative growth is inactive: 0.986.

`C[C@@H]1CN([C@@H](C)CO)C(=O)Cc2cc(N(C)C)ccc2O[C@@H]1CN(C)C(=O)Nc1ccc2c(c1)OCO2`: the relative growth is inactive: 1.

Regarding `Cc1ccc(S(=O)(=O)Nc2cccc3c2O[C@H](CN(C)C(=O)Nc2cccc4ccccc24)[C@H](C)CN([C@H](C)CO)C3=O)cc1`, the relative growth was inactive: 0.995.

Consider `C[C@@H]1CN([C@H](C)CO)C(=O)c2cc(NC(=O)CCC(F)(F)F)ccc2O[C@H]1CN(C)Cc1ccc(-c2ccccc2)cc1`, for which the relative growth was inactive: 0.869.

For `C[C@@H]1CN([C@@H](C)CO)C(=O)Cc2cc(NS(=O)(=O)c3cccs3)ccc2O[C@@H]1CN(C)Cc1ccncc1`, the relative growth was inactive: 0.994.

On to `COc1ccc(NC(=O)N(C)C[C@H]2OCCCC[C@@H](C)Oc3ccc(NC(=O)Nc4c(C)noc4C)cc3C(=O)N([C@H](C)CO)C[C@@H]2C)cc1`, for which the relative growth is inactive: 1.02.

Consider `N=C(N)NC(=O)c1cnccn1`, for which the relative growth was inactive: 0.995.

Regarding `C[C@@H]1CN([C@H](C)CO)C(=O)c2cc(Br)cnc2O[C@H]1CN(C)C(=O)Nc1ccc(F)cc1`, the relative growth is inactive: 0.991.

As to `COC(=O)c1c(C)cc(OC(=O)c2c(C)cc(O)c(C=O)c2O)c(C)c1O`, the relative growth was inactive: 0.867.

Regarding `C[C@@H]1CCCCO[C@H](CN(C)Cc2ccc3c(c2)OCO3)[C@@H](C)CN([C@H](C)CO)C(=O)c2cc(NS(=O)(=O)c3ccccc3)ccc2O1`, the relative growth is inactive: 0.983.
